# In the supplement of paper PMC11417369:
# Some of the results follow.
# System: PF3D7_0420300 AP2 domain 1 (GST-tagged)
# Experiment: gcPBM binding intensity (ln(normalized median fluorescence intensity)); higher = stronger DNA binding
# In short: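 Binding intensity is the highest Masliner-normalised natural-log median intensity over replicate spots in either probe orientation. To obtain it, GST-tagged P. falciparum DNA-binding domains made in E. coli were incubated for 1 h on an Agilent 4 × 180k array of primer-extended double-stranded 36-bp intergenic genomic probes plus negative controls. Detection used Alexa488 anti-GST antibody with scanning at 488 nm.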
row,Sequence,gcPBM binding intensity (ln)
1,AAGAGAGACATCAACACACATACGTATGTATAGAAA [CACACA_site1397],9.49
2,TTTTTTATTGTGATACGTATATTATTTTATGATTAA [GTGCAC_negctrl_site202],9.31
3,TTCATTTTAATAATATGTACATAATATATTTAAAAA [XGTACX_site634],8.87
4,ATTTTTAATCATTTACAACCTAGTGATTATACAAAT [CACACA_negctrl_site1089],9.08
5,CGTATGCGTATATACACACCCACGTATATATATAAA [CACACA_site3200],9.31
6,ATATAATAATTGTACACATGCACACACAAATATTAT [TGCATGCA_site204],9.78
7,ATAGCCAAAAATCATGCACACCTAAAAAAAAAAAAA [CACACA_site8826],9.25
8,TATATTTATGTATATGTGCACATAAATTTAAGAATG [GTGCAC_site9512],9.13
9,GTATGTATAATATACACACTCACAAGCATTCAAATA [CACACA_site267],9.37
10,ATATAAACATGTTTGTGTACGTAATATGAAAAATAA [XGTACX_site8157],9.36
11,TTGTTTTTAAGAAAAACACACACTCCTGTTATTTTA [CACACA_site9230],9.4
12,AAATATTATACAAAAAAAAAAAAAAAAAAAATATAT [CACACA_negctrl_site52],9.39
13,ATTTTGTATATATTTTGTACATATTTTGTATATATT [XGTACX_site885],9.52
14,TATTAAATGAAACAAACACACATAGCCTTTAAATAT [CACACA_site1560],9.63
15,ATTTTTTTTTTTATAGTGGAACCACATTTGCCATTT [CACACA_negctrl_site1247],9.28
16,TTAGGACAAAAAAAAATAAAAATAAAATAAAATAAT [CACACA_negctrl_site1613],9.33
17,ATAAAATAAAACAGAGCACACATTTTATTTACATTC [CACACA_site696],9.52
18,AAATTATATATATTTACATGCAATATAATGAAATAA [TGCATGCA_site229],9.21
19,ATATATATATCATATTGTACATATTATTGTATAATC [XGTACX_site5020],9.21

row,Sequence,gcPBM binding intensity (ln)
1,GTTAAAATTTGTCAATGTACAGAAATAATAAAAAAA [XGTACX_site1879],9.11
2,AAAGTTTTTACCAAGTGTACATATATATATATATAT [XGTACX_site5786],9.15
3,TATTTTTTTTAGCGTACATGCAAAAAAAAAAAAAAA [TGCATGCA_site555],8.48
4,GTTTATTTATTTTATGTGCACATATAACAAAAAAAA,9.08
5,TTTTTTCTTTAATACTCAATATGATAAAAGTAACAC [XGTACX_negctrl_site163],8.91
6,AAAAATAAAAAGAATTGTACATATAAATCATATACA [XGTACX_site6860],9.25
7,GACCCAATGAAAAGGTCACACATTTTTTCTTTTCGA [CACACA_site5074],9.11
8,TAAAAATATATAAACAGTACATAAATTAAATAAATA [XGTACX_site6962],9.47
9,ACATATTTCCAATAATGTACATACAAAATAAGAATG [XGTACX_site2659],9.31
10,TGTTCATTTATTTACTTACACACTTTATATATGTGG [CACACA_site1410],9.63
11,TAAAAGTAGATATATACACACATAAATATAGATGTA [CACACA_site6457],9.46
12,ACAAAGTAAAATAATGCATGTAGGTATACATAATTA [TGCATGCA_site607],9.43
13,AATATTTTATATAAATGTACATTTATGAATAATATA [XGTACX_site8477],9.09
14,GTGCTAAAAGTATATGCACACACATATATATGCACA [CACACA_site8472],9.66
15,CATTTTATAAAAAGCACACATATAGTTATATGCACA [CACACA_site3691],9.24
16,TAAATTATAATAAATACACACAAATTATAATTCTAT [CACACA_site3942],9.44
17,TTTGAATCCTTATATACACACATTATATAATATTAT [CACACA_site4472],9.55
18,TATATATATATACATTGTACATTATTGATTATAACA [XGTACX_site1678],9.25
19,AAATTAGAATTAGGAACACACATATTTATATTTATA [CACACA_site7450],9.33

row,Sequence,gcPBM binding intensity (ln)
1,TTTATTCTCCGACACACACACATATATTTATTTATA [CACACA_site7377],9.95
2,ATATATAAAAAATGTGGTACATTCATTTATTATACA [XGTACX_site3495],9.19
3,AATAAATAAATATATACACACATATATCTGTACATA [CACACA_site9034],9.66
4,AGGAAAAAAAAAATGTGTACTTAAAAAAAAAAAATT [XGTACX_site1471],9.43
5,CGTTTATATTTTAACTGTACTCAAAAAGTGCATTGT [XGTACX_site6072],9.17
6,TTTTATCATATTTATTGTACACATAATATACATATC [XGTACX_site1145],9.37
7,TGTATGTTTATTTATCGTACATATATATATATATAT [XGTACX_site7315],9.35
8,TTTTATATATTATATACACACATATATATATATATA [CACACA_site2999],9.29
9,CACGTGTAAATAGTTTTACAATATCTCGATATGTAT [CACACA_negctrl_site785],9.14
10,GGATATATGAAACATATTGAAAAACCGTTTAGTACA [CACACA_negctrl_site132],9.31
11,GTAATTATATACATACGTACATACACATATGTATAT [XGTACX_site4149],9.32
12,TTATATGAAAATTATTGTACAATCTATAAAAAAAAT [XGTACX_site4194],9.15
13,TTACTATGTAAACACACATGCAATATATGTTAAGCC [TGCATGCA_site253],9.32
14,TAATAATCAAACTATACACACATAAATAAATATATA [CACACA_site156],9.68
15,AAGGAAATAAGAAAAAGTACACATAAGTATATAACA [XGTACX_site1173],9.53
16,GTATATATACATAAATGTACATATATATAAAAAATG [XGTACX_site3271],9.26
17,AATATATAAGTCTACTGTACCCAAAATAAAATTTAT [XGTACX_site8727],9.18
18,AAATAAGAACATAGAATGCACTTTTTTTTTTTTTCC,9.04
19,ATATATTTATATATTGCACACAAAAAAAAAAAAAAA [CACACA_site8468],9.04
